Results from ChEMBL document CHEMBL1201862, “PubChem BioAssay data set” (2004).
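48-hour exposure; five concentrations; linearly interpolated endpoints. GI50 is the concentration that inhibits growth by half.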 Active and inactive are the calls of the source. No stated cut-off is given here; in the data, active = GI50 up to about 1.1 µM and inactive = higher.

test system: NCI-H322M; test: inhibition of tumour cell growth, NCI panel, 48 h

Row | SMILES | GI50
1 | CN(C)CCSc1nccc(-c2cc3ccccc3s2)n1 | inactive: 31.8 µM
2 | C[n+]1c2ccccc2c2/c(=C\C#N)c3ccccc3n21 | inactive: 7.4 µM
3 | C1=CCN(c2ccccc2)CC1 | inactive: > 100 µM
4 | CSc1nc(C)cc(Nc2ccc(O)c(CN3CCOCC3)c2)n1 | inactive: > 100 µM
5 | CC1(C)CC(=O)C(CC2C(=O)c3ccccc3C2=O)C(=O)C1C(=O)C(=O)Nc1cccc2ccc(O)cc12 (stereo not drawn) | inactive: > 100 µM
6 | Cc1ccccc1N1C(=O)/C(=C/c2ccc(N(CCC#N)CCC#N)cc2)N=C1c1cc([N+](=O)[O-])ccc1Cl | inactive: 2.7 µM
7 | COc1c(C(=O)O)cccc1-c1cccc(C(=O)NCCN(CCNC(=O)c2cccc(-c3cccc(C(=O)O)c3OC)c2OC)CCNC(=O)c2cccc(-c3cccc(C(=O)O)c3OC)c2OC)c1OC | inactive: 28.7 µM
8 | O=C1C=C/C(=N/c2ccccc2)c2ccccc21 | inactive: 6.73 µM
9 | COCOc1ccc(OC)cc1 | inactive: > 100 µM
10 | COC(=O)Cc1cccc2c(=O)c(S(=O)(=O)NC(=O)Nc3ccc(Cl)cc3)c(-c3ccccc3)oc12 | inactive: 38.4 µM
11 | C[C@]12CC[C@H](OC3CCCCO3)CC1=CC[C@@H]1C2CC[C@]2(C)/C(=N/O)CCC12 (stereo partly drawn) | inactive: 27.6 µM
12 | CC(Oc1ccc(OCC2CCCCC2)cc1)C(N)=O (stereo not drawn) | inactive: > 100 µM
13 | O=C(c1ccccc1)c1nc2ccc(Cl)cc2c2c1Cc1ccccc1-2 | inactive: > 100 µM
14 | NC1=NS(=O)(=O)Nc2nc(-c3cccs3)[nH]c21 | inactive: > 100 µM
15 | O=c1c2cc(I)ccc2nc(S)n1Cc1ccccc1 | inactive: 16.7 µM
16 | CN/N=C(/Cc1occc(=O)c1O)C(=O)Nc1ccc(C)c(C)c1 | inactive: > 100 µM
17 | O=NN(CCCl)C(=O)NC1CCC(=O)NC1=O (stereo not drawn) | inactive: 528 µM
18 | CCC1(C)C=Cc2c(cc(OC)c3c(=O)c4ccccc4n(C)c23)O1 (stereo not drawn) | inactive: > 10 µM
19 | C/C(=N\Nc1nc2ccccc2s1)c1cccc[n+]1[O-] | inactive: 21.5 µM
20 | O=C1c2ccccc2C2(c3ccc(Cl)cc3)N[C@@H]3CCCC[C@@H]3N12 (stereo partly drawn) | inactive: > 100 µM
21 | C=CCOC(C)n1c(C)cc(=O)n(C(C)OCC=C)c1=O (stereo not drawn) | inactive: > 100 µM
22 | O=C(O)c1cc(=O)c2[nH]c3ccccc3c2s1 | inactive: > 100 µM
23 | CC1=C(/C=C/C(=O)O)C(C)(C)CCC1 | inactive: > 100 µM
24 | COC1OC2COC(C)(C)OC2C(OC(C)=O)C1NC(=O)N(CCCl)N=O (stereo not drawn) | inactive: > 100 µM

Row | SMILES | GI50
25 | O=S(=O)(O)c1ccc2c(/N=N/c3cccc4ccccc34)c(O)ccc2c1 | inactive: > 100 µM
26 | COc1ccc2c(c1)N=C(N)n1c(nc3ccccc31)S2 | inactive: 27 µM
27 | CC[C@@]1(O)C(=O)OCc2c1cc1n(c2=O)Cc2cc3cc(O)ccc3nc2-1 [HYDROXYCAMPTOTHECIN] | active: 0.107 µM
28 | O/N=N\c1nc(-c2cccnc2)nc2ccccc12 | inactive: > 100 µM
29 | NC(CC1=CS(=O)(=O)c2ccc(Cl)cc21)C(=O)O (stereo not drawn) | inactive: > 100 µM
30 | CCOC(=O)C(SCCO)C(C(=O)OCC)n1cnc2c(N)ncnc21 (stereo not drawn) | inactive: 45.4 µM
31 | CC(=O)NCC1(c2ccccc2)CCN(CC2COc3ccccc3O2)CC1 (stereo not drawn) [ACOXATRINE] | inactive: > 100 µM
32 | CCOC(=O)c1nn2c(nc1=O)sc1ccc3ccccc3c12 | inactive: > 100 µM
33 | N#CC(C#N)=C/C=C/c1ccccc1[N+](=O)[O-] | inactive: > 10 µM
34 | CCCCCCC(C)CCCCCCCCCCC(=O)O (stereo not drawn) | inactive: > 100 µM
35 | O=C1Cc2ccccc2N1c1c(Cl)cccc1Cl | inactive: > 100 µM
36 | CCOC(=O)C(CC(C)C)NC(=O)C(N)Cc1ccc(N(CCCl)CCCl)cc1 (stereo not drawn) | inactive: 18.7 µM
37 | O=C1C=CC(=O)c2c1ccc1c3ccccc3n(-c3ccccc3)c21 | inactive: 17.1 µM
38 | O=C(OCC1CO1)c1cccs1 (stereo not drawn) | inactive: > 100 µM
39 | Cc1ccc(O)c(-c2cc(-c3cccc(Br)c3)c(C#N)c(N)n2)c1 | inactive: 29.6 µM
40 | COc1ccc(N2C(=O)/C(=C/c3ccc(N(CCC#N)CCC#N)cc3C)N=C2/C=C\c2ccccc2)cc1 | inactive: 83.6 µM
41 | COC(C(=O)NCCCCNC(=O)C(OC)c1ccccc1)c1ccccc1 (stereo not drawn) | inactive: > 100 µM
42 | COC1(CC[C@@H](C)COC2OC(CO)C(O)C(O)C2O)O[C@H]2C[C@H]3[C@@H]4CC=C5C[C@@H](OC6OC(CO)C(O)C(OC7OC(CO)C(O)C(O)C7O)C6OC6OC(C)C(O)C(O)C6O)CC[C@]5(C)[C@H]4CC[C@]3(C)[C@H]2[C@@H]1C (stereo partly drawn) | inactive: 4.29 µM
43 | COc1c(OC(C)=O)ccc(/C=C2\N=C(C)OC2=O)c1[N+](=O)[O-] | inactive: > 100 µM
44 | CCCCCCCC(CC(=O)O)OC(=O)CC(CCCCCCC)OC1OC(C)C(O)C(O)C1OC1OC(C)C(O)C(O)C1O (stereo not drawn) | inactive: > 100 µM
45 | COC(=O)C1SC(SC)=NC12c1ccccc1Nc1ccccc12 (stereo not drawn) | inactive: 51.9 µM
46 | Nc1nc(=O)[nH]c2c1cnn2COCCO | inactive: > 100 µM
47 | Cc1cc(-c2ccc(Cl)cc2)c(C#N)c(=S)n1C1OC(CO)C(O)C(O)C1O (stereo not drawn) | inactive: > 100 µM
48 | CCOC(OC1=C(C#N)CCCC1)C(C)[Se]c1ccccc1 (stereo not drawn) | inactive: > 100 µM

Row | SMILES | GI50
49 | C#C[C@]1(O)CC[C@H]2[C@@H]3CCC4=C/C(=N/OCCN(C)C)CC[C@]4(C)[C@H]3CC[C@@]21C | inactive: 30.5 µM
50 | COc1cc2c(c3c1c(=O)c1ccccc1n3C)C=CC(C)(C)O2 [ACRONINE] | inactive: > 100 µM
51 | CCc1cccc(C(C)C)c1NC(=O)C(=O)Nn1c(S)nc2ccccc2c1=O | inactive: > 100 µM
52 | COc1cccc(OCC(=N/NC(=O)c2ccncc2)/N=C/c2ccncc2)c1 | inactive: > 100 µM
53 | COc1cc(C2[C@H]3C(=O)N(c4ccc(Cc5ccc(N6C(=O)[C@@H]7ON(c8ccccc8)C(c8cc(OC)c(OC)c(OC)c8)[C@@H]7C6=O)cc5)cc4)C(=O)[C@H]3ON2c2ccccc2)cc(OC)c1OC (stereo partly drawn) | inactive: > 100 µM
54 | COc1ccc2c(c1)/C(=C\c1c(Cl)nc3n1CCS3)C(=O)N2 | inactive: 5.75 µM
55 | C=C1C(=O)O[C@H]2C1[C@H](OC(=O)/C(C)=C\COC(C)=O)C[C@]1(CO1)[C@@H]1[C@H](O)[C@H]3O[C@@]3(C)[C@@H]12 (stereo partly drawn) | inactive: > 100 µM
56 | Sc1nnc(-c2cccnc2)[nH]1 | inactive: > 100 µM
57 | S=C1NC2=C(COC/C2=C\c2ccccc2Cl)C(c2ccccc2Cl)N1 (stereo not drawn) | inactive: 43.4 µM
58 | C#C/C=C\CCCCCCCCCCCCCC/C=C\CCCCC#CC(O)C#CCCCC/C=C\CCCCCC/C=C/C(O)C#C (stereo not drawn) | inactive: 17.8 µM
59 | COC1OCC(O)C(NC(=O)N(C)N=O)C1O (stereo not drawn) | inactive: > 100 µM
60 | CCOC(=O)C(SCCO)C(C(=O)OCC)n1cc(C)c(=O)[nH]c1=O (stereo not drawn) | inactive: > 73.1 µM
61 | Cc1cc2ccccc2n1CC(=O)NCC(C)C | inactive: > 100 µM
62 | C[N+](C)(C)CC(=O)N/N=C(/C=C/c1ccccc1)CC1OC(=O)c2ccccc21 (stereo not drawn) | inactive: > 100 µM
63 | COc1ccn(CC(=O)c2cc3ccccc3[nH]2)c(=O)n1 | inactive: > 100 µM
64 | CC(NC(=O)N(C)C)NC(=O)N(C)C | inactive: > 10 µM
65 | CCOC(=O)c1cccc(=O)c(C(=O)OCC)c1 | inactive: 41.4 µM
66 | Cc1ccc(N2C(=O)C3c4[nH]c5ccccc5c4C4CCC(C(C)(C)C)CC4C3C2=O)cc1 (stereo not drawn) | inactive: 11.6 µM
67 | CN(CCCCN1CCCC1)CCCCN(C)C(=O)Cc1ccc(Cl)c(Cl)c1 | inactive: 16.1 µM
68 | COc1cccc2cc(C(=O)Nc3ccccn3)c(=N)oc12 | inactive: > 100 µM
69 | CCOC(=O)n1[nH]c(=O)n(-c2ccccc2)c1=O | inactive: > 100 µM
70 | CC1CCC2(CC1)NC1=C(CC(C)CC1)C1=C2CC(C)CC1 (stereo not drawn) | inactive: 23.8 µM
71 | Cn1c(S)nnc1-c1csc(-c2ccc(Cl)cc2)n1 | inactive: 33.2 µM
72 | Cc1ccc(NC(=O)CC/C(CC(=O)c2ccc(Cl)cc2)=N\NC(=O)C(=O)NN)cc1C | inactive: > 100 µM

Row | SMILES | GI50
73 | CCCCS/C(=C(/C#N)C(N)=O)c1cc2c([nH]1)CCCC2 | inactive: 14.6 µM
74 | COc1ccc(CC2c3cc(Oc4cc(CC5c6cc(OC)c(OC)cc6CCN5C)ccc4O)c(OC)cc3CCN2C)cc1 (stereo not drawn) | inactive: 7.62 µM
75 | CC(=O)N(C)c1ccc2ncccc2c1[N+](=O)[O-] | inactive: > 100 µM
76 | CCN(CC)CCN1C(=O)c2c(c(-c3ccccc3)c3ccccc3c2-c2ccccc2)C1=O | inactive: > 100 µM
77 | CCCC(S(=O)(=O)c1ccccc1)S(=O)(=O)c1ccccc1 | inactive: > 100 µM
78 | C=C1C(=O)OC2C1C(=O)C/C(C)=C/CCC1(C)OC21 (stereo not drawn) | inactive: > 100 µM
79 | CSC1=NN(C(C)=O)C(C(OC(C)=O)C(OC(C)=O)C(OC(C)=O)C(COC(C)=O)OC(C)=O)S1 (stereo not drawn) | inactive: > 100 µM
80 | COc1ccc(OC)c2c(C(=O)O)c(Cc3ccccc3)ccc12 | inactive: > 100 µM
81 | O=C(NC(=S)Nc1ccc2c(c1)Sc1ccccc1O2)c1ccccc1 | inactive: 40.8 µM
82 | O=C1c2cccnc2C(=O)c2c1nc1ccccc1c2-c1ccc2c3c(nc4ccccc42)C(=O)c2cccnc2-c13 | active: 0.729 µM
83 | O=[N+]([O-])c1cccc(/N=N/c2c(O)ccc3ccccc23)c1 | inactive: > 100 µM
84 | COc1ccc(-c2nc(N(C)C)c3ccccc3n2)cc1 | inactive: 6.41 µM
85 | C/C(=N\NC(=S)N1CCCCC1)c1cccc(C)n1 | active: < 0.0134 µM
86 | COC12OC3CC4(C)C(=CC3OC(OC(C)C1O)C2O)CCC1C4CCC2(C)C(c3ccc(=O)oc3)CCC12O (stereo not drawn) | active: < 0.001 µM
87 | C1=C2C3=[N+](CCCC3)CC2Cc2ccsc21 (stereo not drawn) | inactive: > 100 µM
88 | CCOC(=O)C1(C#N)CC1 | inactive: > 100 µM
89 | Cc1cnc2sn(-c3ccc(Br)cc3)c(=O)c2c1 | inactive: 42 µM
90 | CCCC/C(C)=N/NC(N)=S | inactive: > 100 µM
91 | Cc1ccccc1NC(=O)/C(=N\NC(N)=S)C(C#N)c1ccccc1 (stereo not drawn) | inactive: > 100 µM
92 | CNC(=O)/C(C#N)=C(\N)N1CCCC1 | inactive: > 100 µM
93 | CCOC(=O)Oc1cc2c(ccn2C)c2c1c1ccccc1n2C(=O)OCC | inactive: > 100 µM
